The text below walks through data of patent publication US5869046A, “Altered polypeptides with increased half-life” (Genentech, Inc., priority 1995, dated 1999).

The series is described as follows: Pharmacokinetic study of anti-CD11/18 constructs in mice after intravenous administration (serum concentration by MAC-1 capture ELISA). Format: in vivo, male Crl:CD-1 (ICR)BR VAF/Plus mice. Here is the method: Pharmacokinetic Study of Anti-CD11/18 Constructs in Mice after Intravenous Administration
The objective of this single-dose pharmacokinetic study of five humanized huH52 anti-CD18 antibody fragments (constructs) in mice was to determine if non-specific clearance of antibody fragments is affected by alterations to amino acids in the constant domain. Serum samples were collected from male CD1 mice over a 24-hour period and human anti-CD18 serum concentrations were measured by ELISA.
The anti-CD18 antibody fragments investigated were derived from E.-coli-produced recombinant humanized monoclonal Fab antibody fragments as described above. The Fab fragment and the construct in which two Fab' subunits were joined together by two disulfide bonds were investigated. Lastly, three new versions of the original Fab were constructed by altering amino acids in the constant domain. See the Study Design table below for further description of the constructs.
The construct antigen-binding sites are directed against the CD18 subunit of the CD11/CD18 glycoprotein complex on the surface of leukocytes. These antibody fragments are chimpanzee and human-specific; therefore, the serum pharmacokinetic information obtained in mice provides a description of the non-specific clearance of the fragments.
Because linear pharmacokinetics were expected in this study, a single-dose level of 2 mg/kg was chosen rather than multiple-dose levels.
The pharmacokinetics of the five antibody constructs were studied in male Crl:CD-1® (ICR)BR VAF/Plus® mice (approximately 20-30 g). Five groups, each consisting of twenty mice, received an intravenous bolus dose of 2 mg/kg via the tail vein. Blood samples were collected at 5 and 30 minutes, 1, 2, 4, 8, 12, 16, 20, and 24 hours post-dose. Serum was harvested and concentrations of the antibody fragments were determined in a MAC-1 capture ELISA as follows:
96-Well microtiter plates were coated overnight with murine anti-CD18 monoclonal antibody. After overnight incubation at 4° C., plates were washed three times with ELISA wash buffer and blocked for 1 hour with ELISA diluent. ELISA wash buffer is phosphate-buffered saline (PBS)/0.05% Polysorbate™ 20. This buffer is prepared per liter as 50 mL 20×PBS/1.0% Polysorbate™ 20 (a mixture obtained by dissolving 160 g NaCl, 4.0 g KCl, 22.6 g Na2 HPO4, and 4.0 g KH2 PO4 in glass-distilled or deionized water, adding 10.0 mL Polysorbate™ 20 [Sigma™ P-1379 or equivalent], qs to 1000 mL, and sterile filtering using a 0.22 μm or smaller filter), and qs to 1.0 L of distilled or deionized water, stored at ambient temperature. The expiration period is 2 weeks from the date of preparation.
The ELISA diluent was PBS/0.5% BSA/0.05% Polysorbate™ 20/0.01% Thimerosal™/1 mM CaCl2 /1 mM MgCl2. This diluent was prepared per liter as 5.0 g bovine serum albumin (Armour™ N0068 or equivalent), 50 mL 20×PBS/1.0% Polysorbate™ 20/0.2% Thimerosal™ (a mixture obtained by dissolving 160 g NaCl, 4.0 g KCl, 22.6 g Na2 HPO4, and 4.0 g KH2 PO4 in glass-distilled or deionized water, and adding 10.0 mL Polysorbate™ 20 [Sigma P-1379 or equivalent] and 2.0 g Thimerosal™ [Sigma T-5125 or equivalent], qs to 1000 mL), 0.1% (v/v) 1M CaCl2 (Genentech™ A3165), 0.1% (v/v) 1M MgCl2 (Genentech™ A3167), qs to 1.0 L of distilled or deionized water, and stored at 2°-8° C, with the expiration period 1 month from the date of preparation.
After blocking, the plates were washed again three times with ELISA wash buffer. Soluble MAC1 (CD11b/CD18 as described by Berman et al., J. Cell. Biochem., 52: 183-195 [1993]) was then captured out of a concentrate of media, conditioned by CHO cells expressing the truncated CD11b/CD18 heterodimer. After a 2-hour incubation period, the plates were washed six times with ELISA wash buffer and 100 μL of the mouse serum sample being tested or the standard containing the homologous recombinant human anti-CD18 Fab were added. […]
On the technique in general: ELISA stands for enzyme-linked immunosorbent assay.

The mark [1] stands for this setting: single i.v. bolus 2 mg/kg, mice, two-compartment model.

B1: Fab v1B: Fab v1b incorporated oligos V1A and V1B; derived from anti-CD18 antibody (SEQ ID NO: 10) (antibody)
heavy: ASTKGPSVFPLAPSPKNSSMISNTPALGCLVKDYFPEPVTVSWNSGALTSGVHTFPAVLQSSGLYSLSSVVTVPHQSLGTQTYICNVNHKPSNTKVDKRV
In the case of B1, the “Clearance” value (2 mg/kg i.v., mice) was 80 mL/h/kg. Besides, the “Clearance relative to the double-disulfide (Fab')2” value (2 mg/kg i.v., mice, greater clearance over double-disulfide (Fab')2) is given as “about three-fold higher”. The “Slower clearance from the serum relative to the original Fab” value (2 mg/kg i.v., mice, more slowly than original Fab) worked out at 2 fold. Further, the Half life result (in words) was “longer half life”. Also, the “CO (zero-time concentration estimated from the disposition function)” value (single i.v. bolus 2 mg/kg, mice) was 44 µg/mL. Under setting [1], the “Kcp (rate constant, transfer from the central to a peripheral compartment)” value was determined as 4.01 h⁻¹ and the “Kpc (rate constant, transfer from the peripheral to the central compartment)” value was 3.42 h⁻¹.
